Results reported in PubChem BioAssay AID686979 (National Center for Advancing Translational Sciences (NCATS), 2013).
Where “and” joins values, the source holds several entries; their conditions need not be identical. Identical values can stand only once. The campaign covered roughly 420,000 compounds. About 50,000 (12%) were called active. This list was built around the results that the source calls inconclusive (neither active nor inactive); the mix of calls is not that of the screen. Calls come from the whole dose curve; as a rule, active = well fitted inhibition curve with a large enough effect; inconclusive = small, poorly fitted or top-dose-only effect; inactive = flat fitted curve, though single readings scatter. Potencies of inconclusive entries are doubtful fits and often do not repeat.

Assay: qHTS for Inhibitors of human tyrosyl-DNA phosphodiesterase 1 (TDP1): qHTS in cells in presence of CPT; note: nearly all actives have a fitted effect of over 55% in size
Details: chicken DT40 Tdp1-/-;hTDP1 cells + 20 nM CPT, ATP luminescence, 48 h; activity change, negative = growth inhibition: at 46.2 µM (top of the series) unless noted
Procedure, shortened: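 Chicken DT40 Tdp1-/- cells stably complemented with human TDP1 were seeded at 400 cells/well in medium containing 20 nM camptothecin, exposed to pin-transferred compounds, and grown at 37 °C for at least 48 hr. Viability was read as ATP luminescence.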
% is set by controls: 0 for no effect and ±100 for the full control effect; potency is the fitted concentration of half-maximal effect; tags give direction and shape of the fitted curve.

Q: Which Potency does the source give for CCN(CC)C(=O)Cn1c(=O)n(Cc2ccc(C(=O)NCc3ccccc3Cl)cc2)c(=O)c2ccccc21 here?
A: The Potency was “inactive”.

Q: With CCc1ccc(C2c3[nH]c4ccccc4c3CCN2C(=O)c2ccc(=O)n(C)n2)cc1 (stereo not drawn) as the compound, how does the Potency read?
A: The Potency was inconclusive: 29.1 µM [inhibitor, single point].

Q: With COc1ccc(CCNC(=O)Nc2nc(C(N)Cc3ccccc3)cs2)cc1OC (stereo not drawn) as the compound, how does the Potency read?
A: The Potency was inconclusive: 29.1 µM [inhibitor, single point].

Q: Which Potency does the source give for COc1cccc(-c2cnc(C(O)c3cc(C)c(OC)c(C)c3)[nH]2)c1 (stereo not drawn) here?
A: The Potency was “inactive”.

Q: For Cc1cc(OCc2cc(C(=O)N(C)Cc3ccccn3)no2)cc(C)c1Cl, which Potency is on record?
A: The Potency was inconclusive: 29.1 µM [inhibitor, single point].

Q: With Cc1ccc2c(c1)N(CC(=O)NCCc1ccccc1)C(=O)c1cccnc1O2 as the compound, how does the Potency read?
A: Its Potency is “inactive”.

Q: With CCOC(=O)c1ccc(S(=O)(=O)N2CCN(c3ccccn3)CC2)cc1 as the compound, how does the Potency read?
A: The Potency was “inactive”.

Q: For Cc1ccc(S(=O)(=O)NCC(c2cccnc2)N2CCc3ccccc32)cc1 (stereo not drawn), which Potency is on record?
A: Its Potency is inconclusive: 16.4 µM [inhibitor, single point].

Q: For O=[N+]([O-])c1ccc(/C=N/NC2=NS(=O)(=O)c3ccccc32)cc1, which Potency is on record?
A: The Potency was “inactive”.

Q: With Cc1ccc2[nH]c(=O)c(CN(Cc3ccccc3)Cc3nnnn3Cc3ccccc3)cc2c1 as the compound, how does the Potency read?
A: Its Potency is inconclusive: 35.5 µM [inhibitor, single point].

Q: With COc1ccc(CN2CCN(S(=O)(=O)c3ccc(NC(C)=O)cc3)CC2)cc1 as the compound, how does the Potency read?
A: The Potency was inconclusive: 20.6 µM [inhibitor, single point].

Q: With COc1cc(C2C(=O)N(C3CCCCC3)CC(=O)N2Cc2ccc(C)cc2)ccc1OC(C)C (stereo not drawn) as the compound, how does the Potency read?
A: The Potency was inconclusive: 10.3 µM [inhibitor, partial curve, poor fit].

Q: With CC(C)(C)NC(=O)NC(=O)CN1CCN(c2ccc(O)cc2)CC1 as the compound, how does the Potency read?
A: The Potency was “inactive”.

Q: With CCc1cc2c(=O)n(Cc3ccco3)c(SCc3c(C)noc3C)nc2s1 as the compound, how does the Potency read?
A: Its Potency is active: 5.8 µM.

Q: With CCC(=O)N(Cc1cc(=O)[nH]c2ccccc12)c1ccccc1OC as the compound, how does the Potency read?
A: The Potency was inconclusive: 11.6 µM [inhibitor, partial curve].

Q: Which Potency does the source give for COc1ccccc1-c1n[nH]nc1C1=CC(=O)CC(C)(C)C1 here?
A: Its Potency is “inactive”.

Q: Which Potency does the source give for O=C(CSc1nccn1-c1ccc(F)cc1)Nc1ccc(OC(F)(F)F)cc1 here?
A: The Potency was inconclusive: 23.1 µM [inhibitor, single point].

Q: For CCOC(=O)c1c(C)oc2ccc(NS(=O)(=O)c3ccc4c5c(cccc35)C(=O)N4)cc12, which Potency is on record?
A: The Potency was inconclusive: 25.9 µM [inhibitor, partial curve].

Q: For CN(C(=O)COc1cc(=O)n(C)c2ccccc12)c1cccc(Cl)c1, which Potency is on record?
A: Its Potency is inconclusive: 16.4 µM [inhibitor, partial curve].

Q: For COc1ccc(C2=NOC(C)(c3sc(-c4ccc(Cl)cc4)nc3C)C2)cc1 (stereo not drawn), which Potency is on record?
A: Its Potency is inconclusive: 23.1 µM [inhibitor, single point].

Q: For COc1cc(C2C(c3ccccc3)C(c3cc(OC)cc(=O)o3)C2c2ccccc2)oc(=O)c1 (stereo not drawn), which Potency is on record?
A: Its Potency is inconclusive: 25.9 µM [inhibitor, single point].

Q: For O=C(NCC(c1ccco1)N1CCc2ccccc2C1)c1ccc(Cl)cc1 (stereo not drawn), which Potency is on record?
A: Its Potency is inconclusive: 20.6 µM [inhibitor, single point].

Q: With Cc1ccc([N+](=O)[O-])c(OCCCN2CCCCCC2)c1 as the compound, how does the Potency read?
A: Its Potency is inconclusive: 29.1 µM [inhibitor, single point].

Q: Which Potency does the source give for O=C(O)c1cc(-c2ccc(/C=N/Nc3ccc(Cl)cc3)o2)ccc1Cl here?
A: Its Potency is “inactive”.

Q: Which Potency does the source give for CCCNc1c(NC(=O)c2ccc(OCCC)cc2)c(=O)oc2ccccc12 here?
A: The Potency was inconclusive: 7.31 µM [inhibitor, partial curve].

Q: Which Potency does the source give for O=C1[C@@H]2CSC(c3ccc(C(F)(F)F)cc3)N2C(=O)N1c1ccccc1 (stereo partly drawn) here?
A: The Potency was “inactive”.

Q: With O=Cc1cn(-c2ccccc2)nc1-c1cccc([N+](=O)[O-])c1 as the compound, how does the Potency read?
A: The Potency was inconclusive: 29.1 µM [inhibitor, single point].

Q: For O=C(CC1CCCC1)NNC(=O)c1ccccc1O, which Potency is on record?
A: Its Potency is inconclusive: 20.6 µM [inhibitor, single point].

Q: For O=C1CN(C(=O)c2ccccc2C(F)(F)F)C(c2ccccc2)c2cc(F)ccc2N1 (stereo not drawn), which Potency is on record?
A: Its Potency is inconclusive: 14.6 µM [inhibitor, partial curve].

Q: With CC(CCCC(C)(C)O)NC(=O)c1ccc2oc(CCc3ccccc3)nc2c1 (stereo not drawn) as the compound, how does the Potency read?
A: Its Potency is inconclusive: 23.1 µM [inhibitor, single point].

Q: With COc1cc2c(cc1OC)C(COc1ccc3c(C)cc(=O)oc3c1)N(C(=O)c1ccc(Cl)cc1)CC2 (stereo not drawn) as the compound, how does the Potency read?
A: Its Potency is inconclusive: 20.6 µM [inhibitor, single point].

Q: Which Potency does the source give for O=C(NCc1nc2ccccc2[nH]1)C1=C[C@H](C2CCCCC2)C[C@H](OCCCCO)O1 here?
A: Its Potency is active: 23.1 µM.

Q: Which activity change, negative = growth inhibition does the source give for O=C(C[n+]1cccc2ccccc21)c1ccc(Br)cc1 here?
A: Its activity change, negative = growth inhibition is inconclusive: -31.6% [inhibitor].

Q: Which Potency does the source give for Cn1c(CCC(=O)Nc2ccccc2F)nnc1SCC(=O)Nc1ccccc1Cl here?
A: Its Potency is “inactive”.

Q: For CC(=O)C1=CCC(c2ccc(F)cc2)N(S(=O)(=O)c2ccc(C)cc2)C1 (stereo not drawn), which Potency is on record?
A: The Potency was “inactive and inconclusive: 29.1 µM [inhibitor, single point]”.

Q: For CCOC(=O)N1CCN(C(=O)CSCC(=O)Nc2nc(-c3ccc(-c4ccccc4)cc3)cs2)CC1, which Potency is on record?
A: Its Potency is active: 3.26 µM.

Q: With Cc1ccc2c(C)c(C(=O)N(Cc3ccc(Cl)cc3)C3CCS(=O)(=O)C3)oc2c1 (stereo not drawn) as the compound, how does the Potency read?
A: Its Potency is inconclusive: 29.1 µM [inhibitor, single point].

Q: For CCOC(=O)c1c(NC(=O)COC(=O)CCNS(=O)(=O)c2ccccc2)sc(C(=O)NC)c1C, which Potency is on record?
A: The Potency was inconclusive: 25.9 µM [inhibitor, single point].

Q: For OC(COc1ccc(Cl)cc1)CSc1ccccn1 (stereo not drawn), which Potency is on record?
A: The Potency was “inactive”.

Q: With O=C(CSc1nc(-c2ccco2)cc(C(F)(F)F)n1)N1CCN(c2cccc(Cl)c2)CC1 as the compound, how does the Potency read?
A: The Potency was inconclusive: 20.6 µM [inhibitor, single point].

Q: With O=C(CCCOc1ccccc1)Nc1ccncc1 as the compound, how does the Potency read?
A: The Potency was inconclusive: 25.9 µM [inhibitor, single point].

Q: With ONC(=Nc1ccccc1Cl)c1c(F)cccc1F as the compound, how does the Potency read?
A: The Potency was inconclusive: 5.8 µM [inhibitor, single point].

Q: Which Potency does the source give for N#C/C(=C\c1cccc([N+](=O)[O-])c1)c1nnc2n1CCCCC2 here?
A: The Potency was inconclusive: 1.46 µM [inhibitor, partial curve, poor fit].

Q: Which Potency does the source give for CCCCNC(=O)C1(C)CCN1C(=O)c1ccncc1 (stereo not drawn) here?
A: Its Potency is “inactive”.

Q: With CCOC(=O)Cn1c(=O)oc2cc(S(=O)(=O)NCCC(C)C)ccc21 as the compound, how does the Potency read?
A: Its Potency is inconclusive: 32.6 µM [inhibitor, single point].

Q: With COc1ccc(OCCN(C)CC(=O)Nc2c(C)cccc2C)cc1 as the compound, how does the Potency read?
A: Its Potency is inconclusive: 29.1 µM [inhibitor, single point].

Q: With O=S(=O)(c1ccccc1)c1nc(-c2cccs2)oc1SCc1ccccc1F as the compound, how does the Potency read?
A: The Potency was inconclusive: 4.61 µM [inhibitor, full curve, poor fit].

Q: With COc1ccc(Oc2c(Cl)cnn(-c3ccc(Cl)c(Cl)c3)c2=O)cc1 as the compound, how does the Potency read?
A: The Potency was inconclusive: 29.1 µM [inhibitor, single point].

Q: With CC(C)(C)CC(C)(C)NC(=O)Nc1cccc([N+](=O)[O-])c1 as the compound, how does the Potency read?
A: Its Potency is inconclusive: 29.1 µM [inhibitor, single point].

Q: Which Potency does the source give for CC(C)(C)c1ccc(OCC(O)CN2CCCC2)cc1 (stereo not drawn) here?
A: Its Potency is “inactive”.

Q: For O=C(C1=C[C@H](C2CCCCC2)C[C@H](OCCCCO)O1)N1CCN(Cc2ccccc2)CC1, which Potency is on record?
A: The Potency was active: 20.6 µM.

Q: Which Potency does the source give for CCCCC(CC)CNC(=O)C1CCN(S(=O)(=O)c2cccc3nsnc23)CC1 (stereo not drawn) here?
A: The Potency was “inactive”.

Q: Which Potency does the source give for C=CCNC(=O)NC(=O)COC(=O)c1ccccc1Sc1ccc(C(F)(F)F)cc1[N+](=O)[O-] here?
A: Its Potency is inconclusive: 16.4 µM [inhibitor, single point].

Q: For O=C(c1ccco1)N1CCC2(CCCN(Cc3ccncc3)C2)CC1, which Potency is on record?
A: Its Potency is “inactive”.

Q: Which Potency does the source give for COc1cc(C(=O)NC(=S)NNC(=O)[C@H]2C[C@@H]2c2ccccc2)cc(OC)c1OC here?
A: Its Potency is “inactive”.

Q: With COC(=O)c1ccc(OCCN2C3=NCCN3c3ccccc32)cc1 as the compound, how does the Potency read?
A: The Potency was inconclusive: 29.1 µM [inhibitor, single point].

Q: Which Potency does the source give for Cc1nn(-c2ccccc2)c(Cl)c1C(=O)N1CCN(C)CC1 here?
A: The Potency was “inactive”.

Q: Which Potency does the source give for COc1cc(/C=N/NC2=NS(=O)(=O)c3ccccc32)ccc1OC(C)=O here?
A: The Potency was inconclusive: 29.1 µM [inhibitor, single point].

Q: Which Potency does the source give for Cc1ccc(S(=O)(=O)/N=C2\C(=O)c3ccccc3C([O-])=C2n2cc[n+](CCC(C)C)c2)cc1 here?
A: Its Potency is active: 16.4 µM.

Q: For Cc1ncc(Cc2ccccc2)c(C2CCN(S(=O)(=O)C[C@]34CC[C@H](CC3=O)C4(C)C)CC2)n1, which Potency is on record?
A: The Potency was inconclusive: 18.4 µM [inhibitor, single point].

Q: For CC(C)C[C@H]1COc2cc(N3CCC[C@@H]3CO)ccc2S(=O)(=O)N1, which Potency is on record?
A: Its Potency is “inactive”.

Q: With C#CCn1cc(C=C2C(=O)c3ccccc3C2=O)c2ccccc21 as the compound, how does the Potency read?
A: The Potency was active: 23.1 µM.

Q: Which Potency does the source give for COc1ccc(C(=O)N2CCC3(CCN(CC(C)C)CC3)CC2)cc1 here?
A: Its Potency is “inactive”.

Q: For COc1ccc(NC(=O)C(=O)NNC(=O)COc2ccc(OC)cc2)cc1, which Potency is on record?
A: Its Potency is inconclusive: 5.17 µM [inhibitor, single point].

Q: Which Potency does the source give for Cc1ccc(Cc2c(C)c(C#N)c3[nH]c4ccccc4n3c2=O)cc1 here?
A: Its Potency is inconclusive: 23.1 µM [inhibitor, single point].

Q: Which Potency does the source give for O=C(N/N=C/c1ccc[nH]1)c1cc2ccccc2cc1O here?
A: The Potency was inconclusive: 29.1 µM [inhibitor, single point].

Q: Which Potency does the source give for COC(=O)c1ccccc1C(=O)N(c1ccccc1)c1ccccc1 here?
A: The Potency was active: 6.51 µM.

Q: With Cc1ccc(N2C(=O)[C@@H]3[C@H](C2=O)C2c4ccccc4C=CN2[C@@H]3C(=O)c2ccco2)cc1 (stereo partly drawn) as the compound, how does the Potency read?
A: Its Potency is inconclusive: 29.1 µM [inhibitor, single point].
